The other results are listed elsewhere or left out.
Test system: HepG2
Test: cytotoxicity call (relative viability < 0.9)
Settings: 10 µM

| Compound | cytotoxicity call |
| --- | --- |
| CCCC#Cc1cnc2c(c1)C(=O)N([C@H](C)CO)C[C@H](C)[C@@H](CN(C)C(=O)c1ccc3c(c1)OCO3)O2 | inactive |
| CN(C)CCCNC(=O)C[C@@H]1CC[C@H]2[C@@H](COc3ccc(NC(=O)c4ccccc4F)cc3C(=O)N2C)O1 | inactive |
| Cc1nn2c(N)csc2nc1=O | inactive |
| C[C@H](CO)N1C[C@H](C)[C@H](CN(C)Cc2ccc(Oc3ccccc3)cc2)Oc2ccc(NC(=O)C3CC3)cc2C1=O | inactive |
| C=CCNC(=O)CSc1nc(=O)cc(N)[nH]1 | inactive |
| CNC[C@@H]1OCCCC[C@@H](C)Oc2ccc(NS(=O)(=O)c3cn(C)cn3)cc2C(=O)N([C@H](C)CO)C[C@H]1C | inactive |
| O=C(C[C@@H]1CC[C@@H]2[C@H](COC[C@@H](O)CN2C(=O)Nc2ccc(C(F)(F)F)cc2)O1)NCc1ccncn1 | inactive |
| COc1cccc(-c2ccc([C@@H](Oc3cc(-c4ccc(C[C@H](N)C(=O)O)cc4)nc(N)n3)C(F)(F)F)cc2)c1 | inactive |
| O=C(CCCCCCC(=O)N/N=C/c1cccc(B(O)O)c1)NO | inactive |
| CC[C@@H](C)c1ccc(NC(=O)c2cc3ccccc3o2)cc1 | inactive |
| C[C@H](CO)N1C[C@H](C)[C@@H](CN(C)S(=O)(=O)c2ccccc2)Oc2ccc(NS(C)(=O)=O)cc2C1=O | inactive |
| C[C@@H]1CN([C@H](C)CO)C(=O)c2cc(NC(=O)Nc3cccc4ccccc34)ccc2O[C@@H](C)CCCCO[C@H]1CN(C)S(=O)(=O)c1ccc(F)cc1 | inactive |
| O=C(C[C@H]1CC=CCC[C@H](Cc2ccc(F)cc2)C(=O)OC[C@@H](Cc2ccccc2)NC1=O)NCCO | inactive |

— the antibiotic and cytotoxicity screens of Wong et al. (2023)
